# Laboratory results as given in PubChem BioAssay AID493208 (National Center for Advancing Translational Sciences (NCATS), 2011).
# Among all 44,000 compounds or so, about 340 (0.77%) were called active. Not shown: some 5% with an inconclusive outcome. The call rests on the fitted dose curve; in most records, active means well fitted inhibition curve with a large enough effect; inconclusive means small, poorly fitted or top-dose-only effect; inactive means flat fitted curve, though single readings scatter. Some of the results follow.
# Assay: Acumen qHTS Assay for Inhibitors of the mTORC1 Signaling Pathway in MEF (Tsc2-/-, p53-/-) Cells: Sytravon; further: nearly all actives have a fitted effect of over 50% in size;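 on activity change, negative = inhibition: plate controls were DMSO for no effect and rapamycin for full effect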
# Conditions: phospho-rpS6 immunofluorescence/PI, 24 h; series mostly up to 38.3 µM; activity change, negative = inhibition: at the top concentration
# Method in brief: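 Readout is phospho-S6 Alexa 488 signal normalized to PI per well, reported as % active cells with thresholds set from rapamycin (7.5 nM) and DMSO controls. Cells: Tsc2-/-, p53-/- MEFs, 24 hrs compound at 37 C; PI cell number serves as viability.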
# Potency means the concentration at half of the fitted maximal effect.
SMILES,"activity change, negative = inhibition",Potency
CCc1ccc(-c2cc(C)no2)cc1S(=O)(=O)Nc1ccc(Cl)cn1,inactive: 7.21%,–
Cc1cccc(NC(=O)CSc2cn(CC(=O)N3CCCC3)c3ccccc23)c1C,inactive: -17.7%,–
CC(=O)N1CCCc2cc(S(=O)(=O)N3CCCC(C(=O)NCc4ccccc4)C3)ccc21 (stereo not given),inactive: -10.5%,–
COc1cc(OC)c(NC(=O)c2cc3c(s2)-c2ccc(Cl)cc2SC3)cc1Cl,inactive: -1.52%,–
Cc1cccc(N2CCN(C(=O)C3CCN(Cc4nc(-c5ccc(Cl)cc5)oc4C)CC3)CC2)c1C,inactive: -0.379%,–
CCc1nn2c(-c3ccco3)ccnc2c1-c1ccccc1,inactive: -5.72%,–
CCOC(=O)c1cc(S(=O)(=O)Nc2ccc(OC(F)(F)F)cc2)[nH]n1,inactive: -6.04%,–
CCC1CN(C(=O)N2CCC(C(=O)NCc3cc(OC)ccc3OC)CC2)c2ccccc2O1 (stereo not given),inactive: 3.29%,–
Cn1c(C(=O)NCc2ccc(F)cc2)cc2cc(S(=O)(=O)N3CCCCC3)ccc21,inactive: 0%,–
COc1ccc(NC(=O)CSc2nc(-c3ccc(OC)cc3)cc(=O)[nH]2)cc1,inactive: 8.75%,–
CCN(C(=O)Cn1c(SCC(=O)NCc2ccccc2)nc2ccccc21)c1cccc(C)c1,inactive: 0%,–
COc1ccc(-c2cc3ccc(O)c(CN4CCN(CCO)CC4)c3oc2=O)cc1OC,inactive: 2%,–
O=C(Nc1cccc(Cl)c1Cl)c1cc2nc(-c3ccc4c(c3)OCO4)cc(C(F)(F)F)n2n1,inactive: -0.128%,–
Cc1cccn2c(Nc3ccc4c(c3)OCCO4)c(-c3ccc(Br)o3)nc12,inactive: -0.898%,–
COc1ccc(OC)c(CNC(=O)c2cc(-c3ccc(Cl)s3)nc3ccccc23)c1,inactive: -5.59%,–
COc1cc(-c2nc3n(n2)C(c2ccc(F)cc2)C(C(N)=O)=C(C)N3)cc(OC)c1OC (stereo not given),inactive: -7.18%,–
Cc1ccc(-n2nc(C(=O)NCCc3cccc(C)c3)c3c4ccccc4n(C)c3c2=O)cc1,inactive: -12.3%,–
COc1ccccc1NC(=O)c1oc2ccccc2c1NC(=O)c1ccc(S(=O)(=O)N(C)C)cc1,inactive: -1.61%,–
Cc1ccc(CNC(=O)c2cc(C3CC3)nc3c2c(C)nn3-c2cccc(Cl)c2C)cc1,inactive: -21.2%,–
CCCN(CCC)C(=O)c1c[nH]c2ccc(S(=O)(=O)Nc3cc(C)cc(C)c3)cc2c1=O,inactive: -0.828%,–

SMILES,"activity change, negative = inhibition",Potency
Cc1ccc(NC(=O)c2nc(S(=O)(=O)Cc3cccc(C)c3)ncc2Cl)cc1,–,active: 5.85 µM
COc1cc(C(=O)Nc2ccc(-c3cc(C(F)(F)F)nn3-c3ccccc3)cc2)cc(OC)c1OC,inactive: -28.8%,–
COc1ccccc1CNc1nc(-c2ccco2)nn1S(=O)(=O)c1ccc(Cl)cc1,inactive: -3.09%,–
Cc1ccc(S(=O)(=O)Nc2cc(Cl)c3oc4c(c3c2)C(=O)CC(C)(C)C4)cc1,inactive: -10.9%,–
COCCNC(=O)C(=O)Nc1c2c(nn1-c1ccccc1)CS(=O)(=O)C2,inactive: -0.307%,–
Cc1ccccc1NC(=O)CSc1nc2ccc(NC(=O)COc3ccccc3F)cc2s1,inactive: -25.7%,–
COc1cc(OC)c(NC(=O)Cn2c(=O)cc(C(F)(F)F)c3c(C)nn(C)c32)cc1Cl,inactive: -25.6%,–
CCc1ccccc1NC(=O)c1cnn2c(C(F)(F)F)cc(-c3ccc(OC)c(OC)c3)nc12,inactive: -12.9%,–
CCOC(=O)c1cnn(-c2cccc(F)c2)c1C1CCNCC1,inactive: -2.35%,–
COc1ccccc1OCc1ccc(C(=O)Nc2ccc(C)c(C)c2)o1,inactive: -5.12%,–
Cc1cccc(NC(=O)Cn2nc(N3CCN(c4ccccc4)CC3)ccc2=O)c1C,inactive: -5.15%,–
CCOC(=O)c1c(C)sc(-c2c(-c3cc(C)ccc3C)[nH]c3c2c(=O)[nH]c(=O)n3C)c1O,inactive: -4.92%,–
O=C(NCc1ccc(F)cc1)C1CCN(C(=O)c2cnn(-c3ccccc3)c2-n2cccc2)CC1,inactive: 0.456%,–
O=C(Nc1ccccc1C(=O)O)c1cccc(S(=O)(=O)N2CCCC2)c1,inactive: -5.86%,–
CCCCN(CC)CCCNC(=O)c1cn(C)c2ccc(S(=O)(=O)N(C)C3CCCCC3)cc2c1=O,inactive: 8.41%,–
CCOc1cc(C(=O)NCc2ccc3c(c2)CCN3C(=O)CC)cc(OCC)c1OCC,inactive: -12.5%,–
COc1cccc(CNC(=O)CCC(=O)N2CC3CCCN3c3ccccc32)c1 (stereo not given),inactive: 1.51%,–
Cc1ccccc1NC(=O)CN(C)S(=O)(=O)c1cccc2nsnc12,inactive: 1.36%,–
CCC(Cn1nnc2ccccc2c1=O)NC(=O)Nc1cccc(Cl)c1 (stereo not given),inactive: 4.64%,–
Cc1ccc(C(=O)N2CCN(c3ccccc3F)CC2)cc1NC(=O)c1nsc2ccccc12,inactive: 0.432%,–

SMILES,"activity change, negative = inhibition",Potency
COc1ccc(-c2[nH]ncc2C(=O)NCc2ccc(F)cc2)cc1,inactive: -0.13%,–
CCc1cccc(NC(=O)Cn2c(=O)n(CC3CCC(C(=O)NCCc4ccccc4)CC3)c(=O)c3ccccc32)c1 (stereo not given),inactive: 7.25%,–
COc1ccccc1CCNC(=O)Cc1c(C)c2c(cc(C)c3c(C)coc32)oc1=O,inactive: -4.28%,–
COc1ccc(N2C(=O)C(CC(=O)Nc3ccc(F)cc3)N(CCC3=CCCCC3)C2=O)cc1 (stereo not given),inactive: -0.533%,–
O=C(NC1CC(=O)N(c2cccc(F)c2)C1)C1CCCCC1 (stereo not given),inactive: 1.03%,–
CN(C(=O)Nc1cn(C)c(=O)c2ccccc12)c1ccccc1,inactive: -23.5%,–
O=C(CSC1=Nc2ccccc2N=C(c2ccc(F)cc2)C1)Nc1cc(F)ccc1F,inactive: -13.9%,–
COc1ccc(Cl)cc1NC(=O)CN1c2ccccc2S(=O)(=O)c2ccccc21,inactive: -20.5%,–
COCCCNC(=O)c1c(NC(=O)c2cc(=O)c3cc(C)c(C)cc3o2)sc2c1CCCC2,inactive: -6.91%,–
CCCCNc1cc(NC2CCCCC2)c2c3c(onc13)-c1ccccc1C2=O,inactive: -0.129%,–
Cc1ccc(SCC(=O)Nc2cccc(-c3nc4cc(Cl)ccc4o3)c2C)cc1,inactive: -5.65%,–
CCCOc1ccc(CNC(=O)C2CCN(c3nc4ccccc4nc3C(F)(F)F)CC2)cc1,inactive: 3.24%,–
CCn1cc2nc(SCc3cccc(OC)c3)n(Cc3ccc(Cl)cc3)c(=O)c2n1,inactive: -5.45%,–
COC(=O)c1cc2sccc2n1Cc1ccccc1,inactive: -4.33%,–
CC1=C(C(=O)Nc2ccccc2Cl)C(c2cccs2)n2ncnc2N1 (stereo not given),inactive: -14.5%,–
O=C(CCC1N=C2c3ccccc3N=C(SCc3cccc(F)c3)N2C1=O)NC1CCCCC1 (stereo not given),inactive: -0.889%,–
Cc1cc(NS(=O)(=O)c2ccc(NC(=O)COc3c(C)cc(Br)cc3C)cc2)no1,inactive: -0.938%,–
O=S(=O)(NCc1ccccc1)c1ccc2[nH]c3c(c2c1)CCCCC3,inactive: -25%,–
COc1cccc(NS(=O)(=O)c2ccc3[nH]cc(C(=O)NC4CCCCC4)c(=O)c3c2)c1,inactive: 0.284%,–
Cc1c(CNC(C)c2ccccc2)c(C(=O)O)c(C)n1Cc1c(F)cccc1Cl (stereo not given),inactive: -3.76%,–
